Assay results from the supplement of paper PMC3334620.
The full ranking holds about 33,000 sequences; the median of “E-score (-0.5 to 0.5)” is about -0.016, and the highest 2% start at about 0.32. The list shows a part of the results.

Molecular target: T1, Stp1 (UniProt B3LFK1)
T1 sequence: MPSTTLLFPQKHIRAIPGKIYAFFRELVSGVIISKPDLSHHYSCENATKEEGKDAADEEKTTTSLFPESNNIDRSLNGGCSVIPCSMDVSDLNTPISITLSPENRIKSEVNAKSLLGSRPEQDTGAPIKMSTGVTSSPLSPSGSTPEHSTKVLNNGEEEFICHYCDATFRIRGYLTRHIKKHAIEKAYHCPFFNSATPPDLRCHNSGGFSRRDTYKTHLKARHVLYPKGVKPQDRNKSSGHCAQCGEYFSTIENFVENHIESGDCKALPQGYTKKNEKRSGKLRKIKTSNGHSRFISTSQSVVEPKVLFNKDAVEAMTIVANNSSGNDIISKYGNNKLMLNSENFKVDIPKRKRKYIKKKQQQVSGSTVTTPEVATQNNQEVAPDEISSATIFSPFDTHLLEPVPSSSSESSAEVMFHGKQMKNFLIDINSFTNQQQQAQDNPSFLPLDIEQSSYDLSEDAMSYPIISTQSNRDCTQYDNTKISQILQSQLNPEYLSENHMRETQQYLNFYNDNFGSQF
Assay: PBM E-score (8-mer binding enrichment) (E-score (-0.5 to 0.5)); higher = stronger / more preferred TF binding; most listed sequences are background and not binding sites
Conditions: protein concentration: 200 nM; construct: GST-full length
Procedure: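 Universal 'all 10-mer' protein binding microarrays (Agilent AMADID 015681) probed with GST-tagged S. cerevisiae TFs (full-length or DBD) made by in vitro transcription/translation (PURExpress), about 100-200 nM. Bound TF was detected with fluorescent anti-GST. Each ungapped 8-mer (which stands for itself and its reverse complement) is scored by the PBM enrichment score (E-score), a modified Wilcoxon-Mann-Whitney statistic from -0.5 to +0.5, computed with the Universal PBM Analysis Suite. Scale: above 0.35 generally sequence-specific binding.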

First: GATCCGCA
Second: TAGGACGA
The “PBM E-score” value of the first is higher: 0.0225 for the first, -0.0746 for the second.

First: CCGACCGC
Second: ACCCAGGG
The “PBM E-score” value of the first is higher: -0.224 for the first, -0.244 for the second.

Compared with TAACATCA, GAATCCGC is lower in “PBM E-score” value: 0.0945 for the first, 0.00548 for the second.

First: GTCTGACA
Second: ACGCGTCA
The “PBM E-score” value of the first is lower: -0.0335 for the first, -0.0208 for the second.

Compared with CTGCGGGA, ATTCGTGG is higher in “PBM E-score” value: -0.311 for the first, -0.0218 for the second.

Compared with GCCTACAC, GCATCACA is higher in “PBM E-score” value: -0.0439 for the first, 0.161 for the second.

Compared with GTCTTGCA, AGCTCGCC is lower in “PBM E-score” value: -0.103 for the first, -0.117 for the second.

Compared with AATCTACT, GCATCGAA is lower in “PBM E-score” value: 0.173 for the first, 0.0746 for the second.

First: ACGTGAGC
Second: AGACCGTG
The “PBM E-score” value of the first is lower: -0.178 for the first, 0.0238 for the second.

Compared with AGACATGC, AACTCTCC is higher in “PBM E-score” value: -0.147 for the first, -0.128 for the second.

Going from GCTACCAC to CAGCTGTC, the “PBM E-score” value rises from -0.0354 to 0.0571.

First: AGGTGCAT
Second: AACACCGA
The “PBM E-score” value of the first is lower: -0.0728 for the first, -0.07 for the second.

First: AAGGGGTA
Second: CGAAACAG
The “PBM E-score” value of the first is lower: -0.319 for the first, 0.0069 for the second.

Compared with TGCGTGAA, ATACCGTC is lower in “PBM E-score” value: 0.117 for the first, 0.0874 for the second.

Going from CAATTGTG to AAGTCTCC, the “PBM E-score” value falls from 0.14 to -0.218.

First: CATGAGCA
Second: ATGCATGA
The “PBM E-score” value of the first is lower: -0.0493 for the first, 0.103 for the second.

First: CTAGACTC
Second: AAGCCTAA
The “PBM E-score” value of the first is lower: -0.365 for the first, -0.0724 for the second.

Compared with TAAACTCA, CGGCGCCG is higher in “PBM E-score” value: 0.0936 for the first, 0.484 for the second.

Compared with CGAGTCAA, CGACTACG is lower in “PBM E-score” value: -0.0183 for the first, -0.125 for the second.

Compared with CTGATACA, CGCAGATC is lower in “PBM E-score” value: 0.0538 for the first, -0.0162 for the second.

Going from AAACTCAT to AGCCACAC, the “PBM E-score” value rises from 0.0571 to 0.151.

First: CGGCGTCC
Second: AGTCGCCC
The “PBM E-score” value of the first is higher: 0.376 for the first, -0.174 for the second.

Going from ACCGCTAC to CGAGCCCA, the “PBM E-score” value rises from -0.229 to -0.215.

First: TATAAAAA
Second: AGAGGTAG
The “PBM E-score” value of the first is higher: 0.22 for the first, -0.301 for the second.

Compared with AAGTCATT, CAATGAGC is lower in “PBM E-score” value: -0.108 for the first, -0.114 for the second.

Going from GCTGGTAA to CGGCATCA, the “PBM E-score” value rises from -0.203 to 0.438.

Compared with AGTCGGAT, CGCTATGA is higher in “PBM E-score” value: -0.129 for the first, -0.0471 for the second.

Compared with ATGCTAGG, CTCGAGAA is higher in “PBM E-score” value: -0.129 for the first, -0.00756 for the second.

Compared with GTAAAACA, AGTAGTTA is lower in “PBM E-score” value: 0.00796 for the first, -0.0271 for the second.

Going from CGAGGGTA to TAATATGA, the “PBM E-score” value rises from -0.264 to 0.0999.

Going from ACTATACA to ACAGCTTA, the “PBM E-score” value falls from -0.00578 to -0.112.

First: CTTGAAGA
Second: CGTAATGA
The “PBM E-score” value of the first is lower: -0.038 for the first, 0.0127 for the second.

Going from ATAAGGAT to AAGTACTA, the “PBM E-score” value rises from 0.132 to 0.152.

Going from AATGACGT to ATAGCTAT, the “PBM E-score” value falls from -0.0426 to -0.234.

Going from CATCCGCG to ATTGCGTA, the “PBM E-score” value falls from 0.13 to 0.0955.

Compared with AAGTGGCC, TGATCCAA is higher in “PBM E-score” value: -0.0466 for the first, 0.0995 for the second.

Compared with TAGTCCCA, GATTCCTA is higher in “PBM E-score” value: -0.328 for the first, 0.0649 for the second.

First: AACCCAAC
Second: ACTAGAAA
The “PBM E-score” value of the first is lower: -0.128 for the first, 0.0739 for the second.

First: ACTTTGAC
Second: ATGAAGCA
The “PBM E-score” value of the first is higher: 0.0343 for the first, -0.267 for the second.

Going from CTCAATAC to GTTCATGA, the “PBM E-score” value rises from -0.0266 to 0.111.

Compared with ATGCTCAG, AGCAGAAA is higher in “PBM E-score” value: -0.12 for the first, 0.13 for the second.

First: AGAGATGA
Second: AGCGCATG
The “PBM E-score” value of the first is higher: -0.0454 for the first, -0.176 for the second.

Compared with CATTAGCG, ACAAACAC is higher in “PBM E-score” value: 0.0896 for the first, 0.15 for the second.

Going from CCTTTTCC to GTTGCTGA, the “PBM E-score” value rises from 0.0552 to 0.123.

First: AACCAGCG
Second: AGGGATAC
The “PBM E-score” value of the first is higher: -0.116 for the first, -0.139 for the second.

Going from GGTCAACA to CATTTTGC, the “PBM E-score” value rises from -0.2 to 0.192.

First: CATCAACC
Second: CAACACCA
The “PBM E-score” value of the first is lower: 0.0183 for the first, 0.0363 for the second.

First: GGTGATGA
Second: TACGAGCA
The “PBM E-score” value of the first is higher: -0.0409 for the first, -0.163 for the second.

Going from GGAGATGA to AAACGAAC, the “PBM E-score” value rises from -0.244 to 0.125.

First: CGCTACCA
Second: CGAGGTAC
The “PBM E-score” value of the first is higher: -0.0319 for the first, -0.0775 for the second.

First: AAATGGGC
Second: CTACTTCC
The “PBM E-score” value of the first is higher: -0.0421 for the first, -0.0828 for the second.

Compared with TAGTGATA, ATATTCTA is higher in “PBM E-score” value: -0.198 for the first, 0.2 for the second.

Going from AGCTGACG to CGACATGA, the “PBM E-score” value falls from 0.0152 to -0.089.

Going from TAGCTTCA to GGACCAAC, the “PBM E-score” value rises from -0.0979 to -0.0805.

With CTTCATTA the “PBM E-score” value was 0.247.
